Consider 95 molecules from PubChem BioAssay AID485344 (National Center for Advancing Translational Sciences (NCATS), 2010).

“And” between values parts separate entries of the source, which are not always exact repeats. Equal values may be shown once. The campaign covered roughly 340,000 compounds. About 6,900 (2%) were called active. No stated cut-off is given here; in the data, active means inhibition above about 30%; inactive means below that, where a call was filed. The list shows a part of the results, in another mix than the full data. The source gives no active or inactive call for entries shown without one.

UniProt P14416, sequence (P14416 whole entry, looked up): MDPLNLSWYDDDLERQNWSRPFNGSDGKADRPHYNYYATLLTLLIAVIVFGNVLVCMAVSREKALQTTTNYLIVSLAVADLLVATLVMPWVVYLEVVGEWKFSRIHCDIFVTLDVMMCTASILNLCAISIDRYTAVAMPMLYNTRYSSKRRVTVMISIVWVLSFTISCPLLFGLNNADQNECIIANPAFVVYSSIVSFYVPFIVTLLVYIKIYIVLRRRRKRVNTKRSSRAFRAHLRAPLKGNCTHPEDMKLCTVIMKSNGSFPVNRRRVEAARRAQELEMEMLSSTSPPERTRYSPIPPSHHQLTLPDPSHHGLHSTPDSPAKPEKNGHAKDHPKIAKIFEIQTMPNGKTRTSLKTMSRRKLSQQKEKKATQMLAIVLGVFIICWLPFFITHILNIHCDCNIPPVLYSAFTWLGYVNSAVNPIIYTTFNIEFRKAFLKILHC

This assay deals with D(2) dopamine receptor (Homo sapiens) (UniProt P14416). Briefly: HTS Assay for Allosteric Antagonists of the Human D2 Dopamine Receptor: Primary Screen for Antagonists. Further: 0% is about no effect. The following applies: HEK293 TREx D2 cells, calcium flux, dopamine EC80; at 10 µM; stronger effect = higher value. An outline of the steps:
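Calcium mobilization kinetics were recorded at 1 s intervals in tetracycline-induced HEK293 T-REx D2 cells, first for 180 s after compound addition and then 180 s after EC80 dopamine.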
In general terms: A change in cytosolic calcium serves as a functional read-out for many receptors and channels.
Consider `Cc1ccccc1OCCCCn1c(CCNC(=O)C(C)(C)C)nc2ccccc21`, for which the inhibition turned out to be 2.84%. Then `COc1ccc(OC)c(CNC(=O)c2ccc(NC(=O)c3nsc4ccccc34)cc2)c1`, with -25.8%; and `O=C(CSc1ccccc1)NCc1ccc2c(c1)CCN2C(=O)c1ccccc1`, with 4.53%. The value for `COc1cccc(-c2noc(CCCC(=O)NCc3ccco3)n2)c1` was -4.02%; that for `CN(Cc1ccccc1)C(=O)CCS(=O)(=O)c1ccc2c(c1)oc(=O)n2C` was 2.19%. Regarding `COC(=O)c1ccccc1NC(=O)c1ccc(-c2nc(CSc3ccc(C)cc3)c(C)o2)cc1`, the inhibition came out at 11%.

In the case of `COc1ccc(OC)c(CN2CCN(CCCc3ccccc3)C(CCO)C2)c1` (stereo not given), the inhibition is active: 69.1%. Consider `CC(C)N(Cc1ccccc1)C(=O)Cn1ncc2c3ccccc3n(Cc3ccccc3)c2c1=O`, for which the inhibition was -21.3%. The value for `C=CCn1c(O)c(C(CC)=NCc2cccnc2)c(=O)[nH]c1=O` was active: 42%.

For `COc1ccc(CCNC(=O)c2cn(C)c3ccc(S(=O)(=O)N4CCOCC4)cc3c2=O)cc1OC`, the inhibition was 8.63% and active: 39.6%. Then `CCOC(=O)c1ccc(NC(=O)CCCn2c(=O)c3cccn3c3cccnc32)cc1`, with 9.12%; and `C=CCN(C(=O)c1csnn1)C(C(=O)NCc1ccc(F)cc1)c1ccccc1` (stereo not given), with active: 51.6%; and `Cc1cccc(Cn2c(SCc3ccc(C(=O)NC4CCCC4)cc3)nc3cccnc32)c1`, with -16.4%. Then `COc1ccc(NC(=O)C2CCN(S(=O)(=O)c3c(C)noc3/C=C/c3cccs3)CC2)cc1`, with 4.38%; and `Cc1nn(-c2ccc(Cl)cc2)c2nc(-c3cccnc3)cc(C(F)(F)F)c12`, with 17.8%. Turning to `CCN(CC)CCCNC(=O)c1ccc(Cn2c(=O)[nH]c3cc(OC)c(OC)cc3c2=O)cc1`, the inhibition is -4.9%. The value for `Cn1cc(C(=O)NCc2ccccc2Cl)c(=O)c2cc(S(=O)(=O)N3CCCCCC3)ccc21` was -10.9%; that for `Cc1ccc(-n2c(=O)c3c4c(sc3n(CC(=O)Nc3cccc(Cl)c3)c2=O)CCCCC4)cc1C` was 11.3%; that for `Cc1ccc(S(=O)(=O)NCc2nc3nc(C)cc(C)n3n2)cc1` was 26.1%. Then `Cc1cccc(C)c1OCC(=O)NC(Cc1c[nH]c2ccccc12)C(=O)O` (stereo not given), with 12.5%; and `Cc1ccc(C)c(CN2CCCN(CC(=O)Nc3ccc(C)c(C)c3)S2(=O)=O)c1`, with 1.33%; and `Cc1cccn2c(=O)cc(CSc3nnc(NC(=O)COc4ccccc4)s3)nc12`, with -8.46%. The value for `CCc1ccc(-n2c(=O)c3sc4ccccc4c3n(CC(=O)NCc3ccccc3)c2=O)cc1` was -2.31%; that for `O=C(Nc1cccnc1)c1cc(-c2ccc(Cl)cc2)on1` was 0.304%; that for `O=C(Cn1cccc1C(=O)c1ccccc1)NCc1ccccc1Cl` was 6.37%. In the case of `O=C(c1ccc2c(c1)N(Cc1cccc(F)c1)C(=O)c1ccccc1S2)N1CCC2(CC1)OCCO2`, the inhibition was -8.33%.

Consider `COc1ccc(CNc2nc3c(-c4cccc(F)c4)nnn3c3ccccc23)cc1`, for which the inhibition is 6.61%. With `COc1ccc(N(C)C(=O)c2cc3c(s2)-c2c(C)cccc2OC3)c(OC)c1`, the inhibition is -5.95%. The value for `COc1ccc(-c2c(C)nn3c(C(F)(F)F)cc(-c4ccccc4)nc23)cc1OC` was 8.38%; that for `Cc1ccc(NC(=O)c2c(C)oc3c2C2=NCCN2C=N3)cc1F` was 10.7%. Turning to `CN(CC(=O)NCc1ccc(F)cc1)S(=O)(=O)c1ccc2[nH]c3c(c2c1)CCCC3`, the inhibition is -4.25%. Then `COc1ccc(Nc2nnc(-c3ccc(C)c(S(=O)(=O)NCCO)c3)c3ccccc23)cc1C(N)=O`, with 2.14%; and `CCN(c1ccccc1C)S(=O)(=O)c1nnc(NC(=O)c2ccco2)s1`, with 2.4%; and `COc1ccccc1OCC(=O)N1CCC(c2nc3ccccc3o2)CC1`, with 1.27%. Then `Cc1ccc(-n2ncc(C(=O)NC3CCCCC3)c2C2CCN(C(=O)OC(C)(C)C)CC2)cc1`, with 0.752%; and `CCCS(=O)(=O)c1ncc(Cl)c(C(=O)Nc2c(C(=O)Nc3ccccc3)oc3ccccc23)n1`, with 0.65%; and `CCOC(=O)c1cc(S(=O)(=O)N2CCN(c3cccc(C)c3C)CC2)[nH]n1`, with -15.8%.

For `CNC(=O)c1c(NC(=O)c2nc(SCc3ccc(C)cc3)ncc2Cl)sc2c1CCCC2`, the inhibition was -14.5%.

Consider `COCCCNCCCCOc1ccccc1-c1ccccc1`, for which the inhibition was active: 89.4%. The value for `Cc1ccc(NC(=O)Nc2cn(CC(C)C)c(=O)c3ccccc23)cc1N(C)C` was -6.41%; that for `COc1ccc(-c2cc(C(C)=O)c(C)n2CCC(=O)NCc2ccc(C)cc2)cc1` was 18.8%; that for `COc1cccc(CNC(=O)C2CCN(C(=O)c3cnn(-c4ccccc4)c3-n3cccc3)CC2)c1` was 1.78%. Then `COc1ccc(S(=O)(=O)Nc2cc(-c3cn4ccccc4n3)ccc2C)cc1`, with -9.31%; and `COc1ccc(NC(=O)c2cn(-c3ccccc3)nc2SC)cc1`, with active: 60.7%; and `CC(C)N(C(=O)Cn1cc(S(=O)(=O)Cc2ccc(C(F)(F)F)cc2)c2ccccc21)C(C)C`, with -0.0021%. The value for `Cc1ccc(Nc2c(-c3ccccc3O)nc3ccc(Br)cn23)cc1` was 8.85%; that for `CCOc1ccc(-n2c(=O)c3c(C)c(C(=O)N(C)C)sc3n(CC(=O)Nc3c(C)cc(C)cc3C)c2=O)cc1` was -4.28%; that for `COc1ccc2c(Sc3ccc(Cl)cc3)c(C(=O)NCCCN3CCCCC3)[nH]c2c1` was 12.7%. `Cc1cccc(NC(=O)CSc2nc3c([nH]c4ccccc43)c(=O)n2C)c1`: the inhibition is 12%.

With `Cc1ccc(CN(C(=O)COc2ccc(C)c(C)c2)C2CCS(=O)(=O)C2)o1` (stereo not given), the inhibition came to 8.38%.

As to `CCOC(=O)c1ccccc1NC(=O)CCc1c(C)nc2ncnn2c1C`, the inhibition was 7.44%. With `CCOCCCNC(=O)CCc1nnc2ccc(N3CCN(c4cccc(OC)c4)CC3)nn12`, the inhibition turned out to be 10.8%. The value for `Cc1ccc(NCc2nnc3n2CCCCC3)cc1Cl` was -24.9%; that for `COc1ccc(-c2cc(C(=O)Nc3c(C)nn(Cc4ccc(F)cc4)c3C)no2)cc1OC` was 23.8%; that for `CN1C(C(=O)Nc2ccc(F)cc2F)=CC(c2cccs2)=NS1(=O)=O` was -1.07%.

For the molecule `CCn1nc(-c2ccccc2)c(-c2ccccc2)c(C(=O)OCCOC)c1=O`, the inhibition came to 22.1%. The value for `Cc1ccc2c(=O)cc(C(=O)Nc3nnc(C)s3)oc2c1` was -19.7%. The value for `CCOC(=O)C1=C(CN2CCC(C(=O)OCC)CC2)NC(=O)NC1c1ccc(Cl)cc1` (stereo not given) was -0.0644%; that for `Cc1oc(-c2ccccc2)nc1CNC(=O)Nc1ccccc1` was -23.9%; that for `Cc1nn(C)c2c1c(C(F)(F)F)cc(=O)n2CC(=O)NCc1ccccc1Cl` was 3.57%. Then `Cc1cc(F)ccc1NC(=O)c1sc2nc(-c3cccs3)ccc2c1N`, with -7.82%; and `CCc1cccc(CC)c1NC1=NS(=O)(=O)c2ccccc21`, with 20%.

Take `CC(C)OCCCN1C(=O)c2[nH]nc(-c3ccccc3O)c2C1c1ccc(OCc2ccccc2)cc1` (stereo not given): the inhibition was determined as 13.9%. Turning to `CCOc1ccccc1NC(=O)C(C)Sc1nc2c(c(=O)[nH]1)CCCC2` (stereo not given), the inhibition amounted to 8.21%. Then `Cc1ccc(CC(=O)Nc2c(C(=O)N3CCN(c4ccccc4F)CC3)oc3ccccc23)cc1`, with 18.2%; and `Cc1ccc(NS(=O)(=O)c2ccc3c(c2)NC(=O)CCS3)c(Br)c1`, with 7.86%; and `COc1ccc(C(=O)NCC(c2cccs2)S(=O)(=O)c2ccc(C)cc2)cc1` (stereo not given), with 20.9%. As for `NC(=O)CCC(NC(=O)c1ccc(Cl)cc1)C(=O)NCCc1ccc2c(c1)OCCO2` (stereo not given), the inhibition was active: 42.2%. The value for `O=S(=O)(Nc1ccc(-c2ccc(N3CCCC3)nn2)cc1)c1ccc(Br)cc1` was -5.28%. The value for `COc1cc(Cl)c(C)cc1NC(=O)CN1c2ccccc2S(=O)(=O)c2ccccc21` was 11.5%; that for `CCc1ccccc1Nc1nn2c(=O)c3ccc(C(=O)Nc4cc(C)cc(C)c4)cc3nc2s1` was 6.78%. The value for `COC(=O)c1ccc(CNC(=O)c2ccc3c(c2)NC(=O)CS3)cc1` was active: 37.2%; that for `COC(=O)c1ccc(Cn2c(SCc3cccc(C)c3)nc3ccncc32)cc1` was 5.78%; that for `Cc1cc(C)c(/C=C/c2onc(C)c2S(=O)(=O)N2CCC(C(=O)N3CCN(c4ccccc4)CC3)CC2)c(C)c1` was -4.57%.

`CCOC(=O)c1sc2ncn(CC(=O)Nc3ccc(C)cc3C)c(=O)c2c1C`: the inhibition is -10.6%. Then `COc1cccc(NC(=O)c2cn(C3CCCCC3)c(=O)c3c2c2ccccc2n3C)c1`, with 15.9%; and `Cc1ccc(-c2ccc(=O)n(C(C)C(=O)Nc3ccccc3Cl)n2)cc1C` (stereo not given), with 3.09%; and `CC1CCc2nc3ncn(CC(=O)Nc4cccc(C#N)c4)c(=O)c3cc2C1` (stereo not given), with 3.48%. The value for `COc1ccc(S(=O)(=O)N(CC(=O)N2CCC(C)CC2)c2ccc(C)cc2)cc1` was -2.16%; that for `Cc1cc(C)c2[nH]c(=O)c(C(c3nnnn3CC3CCCO3)N3CCC(C)CC3)cc2c1` (stereo not given) was active: 37.3%. On to `COc1ccccc1-c1nn(CCC(=O)Nc2cccc(C(C)=O)c2)c2nc(C)cc(C)c12`, for which the inhibition was 4.18%. Turning to `COc1ccc(CCNC(=O)NCc2noc3ccc(C)cc23)c(OC)c1`, the inhibition is 18%. Then `CCN(CC)c1cc2c(cc1F)c(=O)c(S(=O)(=O)c1ccccc1)cn2Cc1ccccc1`, with 1.52%; and `Cc1ccc(C(=O)NC2CCCC2)cc1S(=O)(=O)N1CCCCC1`, with active: 31.8%. The value for `COCCn1c(Cc2ccccc2)nnc1SCC(=O)NC1CC1` was active: 32.2%; that for `CC(=O)c1cccc(NS(=O)(=O)c2c(C)nc3sc(C)cn3c2=O)c1` was -7.11%. `CCOC(=O)c1cccc(NC(=O)CCCn2c(C)c3cnn(-c4ccccc4)c(=O)c3c2C)c1`: the inhibition is -6.63%.

For the molecule `COc1cc(C2CC(=O)Nc3c2c(=O)n(C)c(=O)n3C)cc(OC)c1OC` (stereo not given), the inhibition was -2.09%. The value for `Cc1cccc(-n2ncc(C(=O)N3CCC(C)CC3)c2C2CCN(C(=O)OC(C)(C)C)CC2)c1` was -8.61%; that for `Cc1ccc(CNC(=O)CCC(=O)N2CC(C)Sc3ccccc32)cc1` (stereo not given) was 12.8%; that for `Cc1ccc(NC(=O)c2cc3c(=O)[nH]c4ccccc4c3n2C)cc1F` was 5.75%. The value for `COc1ccc(-c2cc(C(C)=O)c(C)n2CCC(=O)NCc2ccc(F)cc2)cc1` was -4.17%; that for `Cc1ccc(OCCn2nnc3sc4c(c3c2=O)CCC(C(C)(C)C)C4)cc1` (stereo not given) was 4.31%.

As for `CC(C)c1ccc(NC(=O)c2cccn2-c2nnc(N3CCCCC3)s2)cc1`, the inhibition was 4.98%. The value for `CCCOc1cccc(C(=O)N(Cc2cc(OC)c(OC)c(OC)c2)C2CCS(=O)(=O)C2)c1` (stereo not given) was -0.835%.

Broadly, the inhibition is the relative decrease from the control value, in per cent.
